Measurements: the supplement of paper PMC3334620
Whole data set: some 33,000 sequences, median “E-score (-0.5 to 0.5)” near -0.017, cut for the highest 2% near 0.3. This is one part of the list.

Biological target: T1, Sut1 (UniProt P53032)
T1 sequence: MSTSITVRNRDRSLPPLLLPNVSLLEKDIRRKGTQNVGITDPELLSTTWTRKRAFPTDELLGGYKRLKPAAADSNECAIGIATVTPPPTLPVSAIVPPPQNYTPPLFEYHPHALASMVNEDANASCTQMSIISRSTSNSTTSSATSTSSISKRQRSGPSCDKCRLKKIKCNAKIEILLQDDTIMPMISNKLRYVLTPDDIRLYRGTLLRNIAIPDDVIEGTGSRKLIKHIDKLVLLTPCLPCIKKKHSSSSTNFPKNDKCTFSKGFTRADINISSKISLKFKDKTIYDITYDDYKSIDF
Assay: PBM E-score (8-mer binding enrichment) (E-score (-0.5 to 0.5)); higher = stronger / more preferred TF binding; most listed sequences are background and not binding sites
Details: protein concentration: 200 nM; construct: GST-full length
Method in brief: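 Yeast transcription factors carrying a GST tag, as full-length proteins or DNA-binding domains, were produced by PURExpress in vitro transcription/translation. About 100-200 nM protein was applied to universal all-10-mer Agilent arrays, double-stranded by primer extension on fresh or once-stripped slides. Bound protein was detected with fluorescent anti-GST, and scans were normalised with masliner. The Universal PBM Analysis Suite gave each ungapped eight-base word, pooled with its reverse complement, an E-score, a modified Wilcoxon-Mann-Whitney statistic.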

Sequence	PBM E-score
CCTGAACC	-0.185
GTATACAC	-0.0284
ACAGGCAT	-0.177
AGGATCGA	-0.00806
AGCCGGAG	0.371
CCGGACCA	0.241
ACAAGCCC	-0.21
AAGTATAT	0.24
ACTTGCGA	0.0658
ATGGCGTC	-0.253
AAACGTGC	-0.0163
CGAATTAA	0.21
CCATGTCG	-0.0375
AGCTTCCG	0.199
CCCATAAC	-0.0366
AGTTTATA	0.335
ATCAGTAG	-0.108
ATCCGACC	0.00218
AGGTAAAG	0.174
ACAGTTGA	0.0424
CATGGACC	-0.195
ACCCCATC	-0.168
AATTACTG	0.0499
ACTGCGCA	0.0539
CGCTAACA	0.017

Sequence	PBM E-score
ACATATGC	-0.245
CGAGTATA	0.0489
ATATTTTA	0.27
TCTTGCAA	0.155
CCCAGGGA	-0.392
TGGAGTAA	0.0966
CGAAATCC	0.131
ATCCTGAC	-0.0644
AACAGCCT	-0.166
AGACCGAC	0.0776
GCCACCGA	-0.19
ACGTTATC	-0.0701
AGCACTGA	0.155
CGAAATTA	0.255
CCGCTTAC	-0.117
GAACATGA	-0.0307
ACCTGTAG	-0.22
CATCCCGG	0.0601
ATAAGAGG	0.109
ACAAGAAG	0.123
ATGTGCCG	-0.256
GTGGCAGA	-0.253
CACGCGCG	-0.0182
CTTATGCC	-0.0906
CCGGCACC	0.126

Sequence	PBM E-score
GCAAGGGC	-0.254
ATCGATTG	0.06
AACGCCAG	-0.0217
CCCTCGCC	-0.406
CATGCCTA	-0.213
TACAAACA	0.234
AACCCTGA	-0.0483
TTGCCAAA	0.0153
CGCCAAAG	-0.237
ATAGATTG	0.0985
GAGCCACA	-0.029
ACGACTGC	-0.191
AAACTCAC	-0.00143
CTGTGCTA	-0.0815
CTATCGCA	-0.0989
GCCTTGTA	-0.0253
CGTAGGTA	-0.0916
CCCAATCA	-0.00324
ATGTGACA	0.127
CAAGTGCG	-0.00833
GGGTCGAA	-0.128
AGATCTCC	0.122
AGGCCGGG	-0.108
ATACCGGA	0.326
CGCAGAAG	0.00083

Sequence	PBM E-score
TAACGTTA	0.166
ATTGATCC	0.0981
AGAACTAG	-0.0366
TCGCGCGA	-0.0129
AGATCCAA	-0.0144
CGAATACC	0.0255
ATCCTTTC	-0.00172
ACTGTCGA	-0.101
GACGTCGA	-0.188
ACAGACAG	0.0125
ACCAGTGG	-0.105
GGCCTAAA	-0.0532
ACAGTGGT	-0.141
CCGATCTA	0.137
GGCGGGGA	0.0668
CGAAACGC	-0.0285
GAATGCCA	-0.0268
AGTAGCGG	0.0806
ACACGCGT	0.029
GCGTCAAA	0.0357
CGGTTACC	-0.197
AGTTGCTC	-0.0226
ATATTAAG	0.141
GCAACGCC	-0.114
AAATGACC	0.104

Sequence	PBM E-score
CACTGGTC	-0.214
AACGGCCA	0.161
AAAACTTT	0.0595
CACAGCCA	-0.222
AGCTGGGA	-0.262
GAGTACCC	-0.196
CGCCCAGC	-0.0173
AGGCCGTC	-0.289
AGCCATCC	-0.163
CTGAACAC	-0.0309
GCGTAGGA	-0.102
AGGTATAG	-0.0949
CTACCTGC	-0.0426
CACGACCA	-0.0486
ATCCGAGA	0.198
CGACACGC	-0.0851
ATGATGGA	0.0142
ATCGATCG	-0.0937
AATAGCTC	-0.207
CTTATGGA	-0.169
ATCAGCGA	0.0529
GCCCCTCA	-0.248
GGTCATAC	-0.0756
AACGTGAA	0.0111
CCAATAAC	0.135

Sequence	PBM E-score
CTTACTGC	-0.0137
GTTATCAA	0.109
CATACCCC	0.0362
ACCGCGAA	0.0419
GCGACGTA	-0.143
ACCGGCTG	-0.0111
ACGGAACA	0.229
CAAGCTTC	0.0847
ATGGGCTC	-0.294
ACTCCGAT	0.491
CGATCTAG	-0.0782
AGACCTTG	-0.0468
AGTTCTGC	-0.148
AAACCTCC	-0.0204
ACTAATAA	0.223
CGCGTACG	0.0703
AGACTTCG	-0.0617
ACCCCCAA	-0.16
ACGCCTAA	-0.0531
CGTGAGTC	-0.248
CGCCCATC	-0.158
GCTACGGA	0.151
CAACACGC	-0.0885
AACAAAGA	0.129
AAACAGCA	0.0965

Sequence	PBM E-score
CTGTGCGA	-0.187
CTGGAGTA	0.0562
AAAGCGCG	-0.044
AAGTCTGC	-0.193
GCAATATA	0.025
ATTTCCGA	0.231
TGTTTCAA	0.202
CTAGACCC	-0.143
AAGCACAC	-0.0807
CTATCGGA	0.337
ATCCCGGC	-0.0494
CAGGCTGG	-0.304
CTAATCCC	-0.0144
CGTGTAAG	0.0869
TATGACCA	-0.0156
ATACTATC	0.202
GCGTGCCA	-0.115
GATTCCAA	0.0131
CCCAGGAC	-0.228
GAAGTGTA	-0.0846
CCTCCGTC	-0.0539
AATACTAC	0.161
